# Test results: PubChem BioAssay AID1345082 (National Center for Advancing Translational Sciences (NCATS), 2018)
# Hit rate of the full screen: of about 94,000 compounds, about 4,000 (4.3%) were called active. Inconclusive results, whose numbers are uncertain, are shown with a selection of clear calls. Calls follow the shape of the dose curve; as a rule, active = well fitted inhibition curve with a large enough effect; inconclusive = small, poorly fitted or top-dose-only effect; inactive = no such curve, though single readings can be large or run the other way. Potencies of inconclusive entries are doubtful fits and often do not repeat.
# Experiment: Cytotoxic Profiling in NIH 3T3 Cell Line of Diverse Libraries Using Quantitative High-Throughput Screening; also: nearly all actives have a fitted effect of over 55% in size
# Conditions: NIH 3T3 viability, CellTiter-Glo ATP luminescence, 48-72 h; activity change, negative = cytotoxicity: at 96.7 µM (top of the series) unless noted; series mostly up to 96.7 µM
# Outline: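 Cells were seeded at 400 per well, treated with pin-transferred compound, and kept 48 or 72 hr at 37 °C before CellTiter-Glo addition and luminescence imaging of cellular ATP.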
# % is scaled to controls: 0 for no effect and ±100 for the full control effect; potency is read from the fitted curve at half-maximal effect; tags tell the direction and shape of the fitted curve.
SMILES,Potency,"activity change, negative = cytotoxicity",outcome
Cc1cc(=O)n(CC(=O)Nc2ccccc2C)c(N(C)Cc2ccccc2)n1,"inconclusive: 12.6 µM [inhibitor, partial curve, poor fit]",,
C#CCNC(=O)C[C@@H]1O[C@H](CNC(=O)c2ccco2)[C@@H](O)[C@H]1O,,inactive: -16.2% [at 174 µM],
CCn1cc(S(=O)(=O)N2CCC(c3noc(COCc4ccccc4)n3)CC2)cn1,,inactive: -17.4%,
O=C(Nc1ccc(Oc2ccccc2)cc1)O[C@@H]1CO[C@H]2[C@@H]1OC[C@@H]2Nc1nccc(-c2cccs2)n1,,inactive: -22.2%,
CN(C)c1ccc(C(=O)N[C@H]2C[C@@H](c3nc(-c4ccc5ccccc5c4)no3)N(C)C2)cc1,"inconclusive: 56.2 µM [inhibitor, partial curve, poor fit]",,
O=C(c1c[nH]c2ncccc12)N1CCN(Cc2ccccc2)CC1,"inconclusive: 89.1 µM [inhibitor, partial curve, poor fit]",,
Cc1c(CN2CCCC23CCN(c2ccc(C(F)(F)F)cn2)CC3)cc(C#N)n1C,"inconclusive: 79.4 µM [inhibitor, partial curve, poor fit]",,
COc1cccc(NC(=O)c2ccnc(-c3nnc4ccc(N(C)C)nn34)c2)c1,active: 31.6 µM,,
Cn1c(=O)n([C@H]2CCCN(C(=O)c3cccnc3)C2)c2ncccc21,,inactive: -17.4%,
Cc1cc(Cl)ccc1OCC(=O)N1CCC(c2n[nH]c(=O)n2-c2ccccc2)CC1,active: 39.8 µM,,
CCc1nc2nccc(-c3cc4ccccc4o3)n2n1,"inconclusive: 50.1 µM [inhibitor, partial curve, poor fit]",,
O=C(C1CCCC1)N1CCC(N2C(=O)C(OCC3CC3)C23CCCCC3)CC1 (stereo unspecified),"inconclusive: 28.2 µM [inhibitor, full curve, poor fit]",,
CCOc1ccc(CC(=O)N2CCC[C@H]2c2nc(-c3ccc(C)cc3)no2)cc1OCC,"inconclusive: 50.1 µM [inhibitor, partial curve, poor fit]",,
COc1ccc(NC(=O)c2cc(-c3ccc[nH]3)n[nH]2)cc1,,inactive: -3.5%,
COCCNC(=O)c1nc2c(o1)CCN(Cc1cccc(F)c1F)CC2,"inconclusive: 100 µM [inhibitor, partial curve, poor fit]",,
COc1ccc(C(=O)N2CCC(c3nn(C)c(=O)n3-c3ccccc3)CC2)cc1,,inactive: -0.229%,
O=c1n(-c2ccc(Cl)cc2)nc2n1CCN(Cc1ccc(C(F)(F)F)cc1)C2,"inconclusive: 44.7 µM [inhibitor, partial curve, poor fit]",,
Cc1ccc(C(=O)N2CCC(N3C(=O)c4c(c(C)nn4-c4ccccc4)C3C)C2)cc1 (stereo unspecified),"inconclusive: 14.1 µM [inhibitor, partial curve, poor fit]",,
CCN1CCC(OCCCNC(=O)c2ccc(CC3CCN(C(C)=O)CC3)cc2)CC1,"inconclusive: 70.8 µM [inhibitor, partial curve, poor fit]",,
CC#CCn1cc2c3c(cccc31)[C@H](CC(C)C)N[C@H](C(=O)N1CCN(CCO)CC1)C2,"inconclusive: 126 µM [inhibitor, single point]",,
COc1ncccc1-c1nc2cc(C(=O)Nc3ccc(C)cc3)ccc2o1,"inconclusive: 89.1 µM [inhibitor, partial curve]",,

SMILES,Potency,"activity change, negative = cytotoxicity",outcome
Cc1ccccc1CCC1CCCN(C(=O)CCc2cnn(C)c2)C1 (stereo unspecified),"inconclusive: 5.62 µM [inhibitor, full curve, poor fit]",,
O=C(NCCc1nc(-c2ccccc2)cs1)c1ccc2nccn2c1,"inconclusive: 44.7 µM [inhibitor, full curve, poor fit]",,
COc1cccc(-c2cc(C3CCN(C(=O)Nc4ccc(F)cc4F)CC3)[nH]n2)c1,"inconclusive: 28.2 µM [inhibitor, partial curve, poor fit]",,
O=C(NCCc1cnc[nH]1)[C@@H]1C[C@H]2C(=O)NCCCCCCN(S(=O)(=O)c3cccs3)[C@H]2C1,,,inactive
CC(=O)N1CCNc2cc(Nc3ccc(F)cc3)ncc2C1,"inconclusive: 79.4 µM [inhibitor, partial curve, poor fit]",,
CN(C)c1cccc(C(=O)Nc2ccc3ncnc(N4CCCCC4)c3c2)c1,"inconclusive: 44.7 µM [inhibitor, partial curve, poor fit]",,
O=C(NCCCN1CCc2ccccc2C1)C1CCc2ncc(-c3ccc(F)cc3)n2C1 (stereo unspecified),"inconclusive: 44.7 µM [inhibitor, partial curve, poor fit]",,
CC(=O)N1CCC2(CC1)OC(=O)N(Cc1ccc(O)cc1)C2(C)c1ccccc1 (stereo unspecified),"inconclusive: 89.1 µM [inhibitor, partial curve, poor fit]",,
COc1ccc(-c2cnc3n[nH]c(-c4ccc(F)cc4C)c3n2)cc1OC,active: 28.2 µM,,
CC(C)OC(=O)N(C)Cc1cccc(N2CCN(S(=O)(=O)c3c(Cl)cccc3Cl)CC2)c1F,"inconclusive: 28.2 µM [inhibitor, full curve]",,
COc1ccc(-c2nc(C3CC(=O)N(c4ccc(OC)c(OC)c4)C3)no2)cc1OC (stereo unspecified),"inconclusive: 50.1 µM [inhibitor, partial curve, poor fit]",,
Cc1ccc(-c2cc(N3CCCN(C(=O)Cc4cccs4)CC3)n[nH]2)cc1C,"inconclusive: 44.7 µM [inhibitor, partial curve, poor fit]",,
COc1ccc(CC(=O)N2CCCC2C(=O)N2CCCC2c2nc3ccncc3[nH]2)cc1 (stereo unspecified),,inactive: -11.7%,
CC(C)Oc1ccc(CNC(=O)c2nnn3cc(-c4ccccc4)[nH]c(=O)c23)cc1,"inconclusive: 50.1 µM [inhibitor, partial curve, poor fit]",,
CCc1nc2c(c(-c3ccc(Cl)cc3)n1)CN([S+](C)(=O)[O-])CC2,active: 44.7 µM,,
O=C(NC1CCN(c2ccnc3ccnn23)CC1)c1cncc(Br)c1,,inactive: -32.9%,
CCOc1cc(C(=O)N2CCC[C@H]2c2nc(-c3ccc(F)cc3)no2)cc(OCC)c1OCC,"inconclusive: 56.2 µM [inhibitor, partial curve, poor fit]",,
COc1ccccc1C(=O)NC1CCN(C(=O)c2ccc(-c3ccccc3OC)cc2)CC1,"inconclusive: 70.8 µM [inhibitor, single point]",,
O=C(NCCc1ccccc1F)c1ccc2nnc(-c3cc[nH]c3)n2c1,"inconclusive: 56.2 µM [inhibitor, partial curve, poor fit]",,
COC(=O)CNC(=O)c1cc(-c2ccccc2F)nc2c1cnn2C,"inconclusive: 100 µM [inhibitor, partial curve, poor fit]",,
CCOc1cc(=O)n2c(c1C(=O)Nc1cccc(Br)c1)CCCC2,,inactive: -6.12%,

SMILES,Potency,"activity change, negative = cytotoxicity",outcome
CS(=O)(=O)N1CCCN(Cc2cccc(F)c2)CCNC(=O)CC1c1ccccc1 (stereo unspecified),,inactive: -23.4%,
CNC(=O)C1(N2CCC[C@H]2C(=O)NC(C)C)COC1,,inactive: 0.433% [at 230 µM],
CCOc1ccccc1CN1CC[C@H](c2n[nH]c(C)n2)[C@H](NC(=O)C2CC2)C1,,inactive: -25.5%,
N#Cc1ccc2nc([C@H]3CCN(Cc4ccccn4)C3)[nH]c2c1,active: 63.1 µM,,
CN1CCCC(CN(CCc2ccccc2)C(=O)c2cc(C#N)cn2C)C1 (stereo unspecified),,inactive: -8.17%,
O=C(NC1CCN(c2ccnc3ccnn23)CC1)c1cc(F)ccc1Br,"inconclusive: 89.1 µM [inhibitor, partial curve, poor fit]",,
CCCCNC(=O)CC(c1cccc2c1OCO2)c1c[nH]c2c(CC)cccc12 (stereo unspecified),"inconclusive: 39.8 µM [inhibitor, partial curve, poor fit]",,
O=[N+]([O-])c1cccc(-c2noc([C@@H]3C[C@@H](O)CN3Cc3cccs3)n2)c1,"inconclusive: 126 µM [inhibitor, single point]",,
O=C(NCc1ccco1)[C@@H]1Cc2nc[nH]c2CN1Cc1ccc(Cl)cc1,"inconclusive: 89.1 µM [inhibitor, partial curve]",,
CCCn1cc(CNc2cc(CC)nc3c(C)c(C)nn23)cn1,"inconclusive: 5.62 µM [inhibitor, full curve, poor fit]",,
CCCn1nccc1C(=O)N1CCCC(c2[nH]ncc2Cc2ccccc2)C1 (stereo unspecified),"inconclusive: 50.1 µM [inhibitor, partial curve, poor fit]",,
Cc1cc(-c2cc3c(cn2)CN(Cc2ccc(F)c(F)c2)CCN3)ccn1,"inconclusive: 50.1 µM [inhibitor, partial curve, poor fit]",,
CC(C)C[C@@H]1N[C@H](C(=O)NCCN2CCCC2)Cc2c[nH]c3cccc1c23,"inconclusive: 112 µM [inhibitor, partial curve, poor fit]",,
O=C(c1ccc(N2CC3CC(C2)[C@H]2CCCC(=O)N2C3)nc1)N1CCN(c2ncccn2)CC1 (stereo partly specified),"inconclusive: 79.4 µM [inhibitor, partial curve, poor fit]",,
O=C(c1cc(-c2ccc(Cl)cc2Cl)c2cccn2n1)N1CCOCC1,"inconclusive: 70.8 µM [inhibitor, single point]",,
Cc1noc(C)c1-c1cc(-c2ccc(CO)cc2)cn2cncc12,"inconclusive: 50.1 µM [inhibitor, full curve]",,
COc1ccccc1-c1ccc(C(=O)N2CCC(C(=O)NC3CCCC3)CC2)cc1,"inconclusive: 70.8 µM [inhibitor, partial curve, poor fit]",,
Cn1ccc(NC(=O)c2ccc(-c3ncc4cnc(-c5cccc(F)c5)cn34)cc2)n1,"inconclusive: 44.7 µM [inhibitor, full curve]",,
Cc1ccc(C(=O)N2CCc3sc(C(=O)NCc4ccc(C)o4)cc3C2)cc1,"inconclusive: 44.7 µM [inhibitor, partial curve, poor fit]",,
